Results reported in patent US11795195B2, “Antibody-drug conjugates including hemiasterlin derivative” (Sumitomo Pharma Co., Ltd., priority 2017, dated 2023).

How the values were obtained:
HL-60 = assay: Cellular Toxicity Test (3) for ADCs; type: cell-based; settings: HL-60, treatment with 333 nM of ADC
Procedure: (§1) In accordance with the method described in Test Example 3 or Test Example 7, cellular toxicities of Example ADCs were measured using the cell types shown in the following table. As an indicator for the cellular toxicity, IC50 or the cell survival rate upon the treatment with 333 nM of ADC was measured. However, for ADC 51, the cell survival rate upon the treatment with 26.6 nM of ADC51 was measured.

LS174T = assay: Cellular Toxicity Test (3) for ADCs; type: cell-based; settings: treatment with 333 nM of ADC
Procedure: as §1

B1: ADC46: ADC of Gemtuzumab and M4, average DAR 8 (conjugate, chains of the INN, looked up)
heavy: EVQLVQSGAEVKKPGSSVKVSCKASGYTITDSNIHWVRQAPGQSLEWIGYIYPYNGGTDYNQKFKNRATLTVDNPTNTAYMELSSLRSEDTAFYYCVNGNPWLAYWGQGTLVTVSSASTKGPSVFPLAPCSRSTSESTAALGCLVKDYFPEPVTVSWNSGALTSGVHTFPAVLQSSGLYSLSSVVTVPSSSLGTKTYTCNVDHKPSNTKVDKRV[human IgG4 Fc with S228P (EU numbers) left out]
light: DIQLTQSPSTLSASVGDRVTITCRASESLDNYGIRFLTWFQQKPGKAPKLLMYAASNQGSGVPSRFSGSGSGTEFTLTISSLQPDDFATYYCQQTKEVPWSFGQGTKVEVKRTVAAPSVFIFPPSDEQLKSGTASVVCLLNNFYPREAKVQWKVDNALQSGNSQESVTEQDSKDSTYSLSSTLTLSKADYEKHKVYACEVTHQGLSSPVTKSFNRGEC
modifications: drug-linker M4, DAR 8
Cell survival rate (%) (HL-60): 78%

B2: ADC47: ADC of Labetuzumab and M4, average DAR 8 (conjugate, chains of the INN, looked up)
heavy: EVQLVESGGGVVQPGRSLRLSCSASGFDFTTYWMSWVRQAPGKGLEWIGEIHPDSSTINYAPSLKDRFTISRDNAKNTLFLQMDSLRPEDTGVYFCASLYFGFPWFAYWGQGTPVTVSSASTKGPSVFPLAPSSKSTSGGTAALGCLVKDYFPEPVTVSWNSGALTSGVHTFPAVLQSSGLYSLSSVVTVPSSSLGTQTYICNVNHKPSNTKVDKRV[human IgG1 Fc left out]
light: DIQLTQSPSSLSASVGDRVTITCKASQDVGTSVAWYQQKPGKAPKLLIYWTSTRHTGVPSRFSGSGSGTDFTFTISSLQPEDIATYYCQQYSLYRSFGQGTKVEIKRTVAAPSVFIFPPSDEQLKSGTASVVCLLNNFYPREAKVQWKVDNALQSGNSQESVTEQDSKDSTYSLSSTLTLSKADYEKHKVYACEVTHQGLSSPVTKSFNRGEC
modifications: drug-linker M4, DAR 8
Cell survival rate (%) (LS174T): 62%
